{"source": "patent US10351915B2", "about": "(Berg LLC, priority 2009, dated 2019)", "key": {"SK-MEL-28 cells [1]": {"tested_on": "SK-MEL-28 cells", "experiment": "Real-time PCR Diabetes Array", "format": "cell-based", "excerpt": "(SABiosciences, Frederick, Md.)."}, "SK-MEL-28 cells [2]": {"tested_on": "SK-MEL-28 cells", "experiment": "Real-time PCR Oxidative Stress and Antioxidant Defense Array", "format": "cell-based", "details": "100 μM Q10, 16 hr", "procedure": "Experimental details: […] (SABiosciences, Frederick, Md.). […] Further experiments were carried out using SKMEL-28 cells. […] The PCR array (SABiosciences) is a set of optimized real-time PCR primer assays on 96-well plates for pathway or disease focused genes as well as appropriate RNA quality controls. The PCR array performs gene expression analysis with real-time PCR sensitivity and the multi-gene profiling capability of a microarray."}}, "data": [{"smiles": "COC1=C(OC)C(=O)C(C/C=C(\\C)CC/C=C(\\C)CC/C=C(\\C)CC/C=C(\\C)CC/C=C(\\C)CC/C=C(\\C)CC/C=C(\\C)CC/C=C(\\C)CC/C=C(\\C)CCC=C(C)C)=C(C)C1=O", "note": "[Q10, Coenzyme Q10]", "values": [{"measurement": "VEGFA Regulation", "setting": "SK-MEL-28 cells [1]; 100 μM Q10, after 58 hours (\"then\")", "result": "down"}, {"measurement": "ADRB3 Regulation", "setting": "SK-MEL-28 cells [1]; 100 μM Q10, at 48 hours", "result": "Down Regulated at"}, {"measurement": "CEACAM1 Regulation", "setting": "SK-MEL-28 cells [1]; 100 μM Q10, at 48 hours", "result": "Down Regulated at"}, {"measurement": "CEBPA Regulation", "setting": "SK-MEL-28 cells [1]; 100 μM Q10, at 48 hours", "result": "Up regulated at 48"}, {"measurement": "CTLA4 Regulation", "setting": "SK-MEL-28 cells [1]; 100 μM Q10, at 48 hours", "result": "Down Regulated at"}, {"measurement": "DUSP4 Regulation", "setting": "SK-MEL-28 cells [1]; 100 μM Q10, at 48 hours", "result": "Down Regulated at"}, {"measurement": "ENPP1 Regulation", "setting": "SK-MEL-28 cells [1]; 100 μM Q10, at 48 hours", "result": "Down Regulated at"}, {"measurement": "FOXC2 Regulation", "setting": "SK-MEL-28 cells [1]; 100 μM Q10, at 48 hours", "result": "Down Regulated at"}, {"measurement": "G6PD Regulation", "setting": "SK-MEL-28 cells [1]; 100 μM Q10, at 48 hours", "result": "Up regulated at 48"}, {"measurement": "HMOX1 Regulation", "setting": "SK-MEL-28 cells [1]; 100 μM Q10, at 48 hours", "result": "Down Regulated at"}, {"measurement": "ICAM1 Regulation", "setting": "SK-MEL-28 cells [1]; 100 μM Q10, at 48 hours", "result": "Down Regulated at"}, {"measurement": "IL4R Regulation", "setting": "SK-MEL-28 cells [1]; 100 μM Q10, at 48 hours", "result": "Down Regulated at"}, {"measurement": "IRS2 Regulation", "setting": "SK-MEL-28 cells [1]; 100 μM Q10, at 48 hours", "result": "Down Regulated at"}, {"measurement": "NKX2-1 Regulation", "setting": "SK-MEL-28 cells [1]; 100 μM Q10, at 48 hours", "result": "Down Regulated at"}, {"measurement": "NSF Regulation", "setting": "SK-MEL-28 cells [1]; 100 μM Q10, at 48 hours", "result": "Down Regulated at"}, {"measurement": "PIK3CD Regulation", "setting": "SK-MEL-28 cells [1]; 100 μM Q10, at 48 hours", "result": "Down Regulated at"}, {"measurement": "PPARG Regulation", "setting": "SK-MEL-28 cells [1]; 100 μM Q10, at 48 hours", "result": "Down Regulated at"}, {"measurement": "PRKCB1 Regulation", "setting": "SK-MEL-28 cells [1]; 100 μM Q10, at 48 hours", "result": "Down Regulated at"}, {"measurement": "SELL Regulation", "setting": "SK-MEL-28 cells [1]; 100 μM Q10, at 48 hours", "result": "Down Regulated at"}, {"measurement": "STXBP1 Regulation", "setting": "SK-MEL-28 cells [1]; 100 μM Q10, at 48 hours", "result": "Down Regulated at"}, {"measurement": "TNF Regulation", "setting": "SK-MEL-28 cells [1]; 100 μM Q10, at 48 hours", "result": "Up regulated at 48"}, {"measurement": "VEGFA Regulation", "setting": "SK-MEL-28 cells [1]; 100 μM Q10, at 58 hours", "result": "Up regulated at 58"}, {"measurement": "TNFRSF1A Regulation", "setting": "SK-MEL-28 cells [1]; 100 μM Q10, at 72 hours", "result": "Down Regulated at"}, {"measurement": "expression of HNF4A", "setting": "SK-MEL-28 cells [1]; cells following Q10 treatment", "result": "upmodulated"}, {"measurement": "NCF1 mRNA level change", "setting": "SK-MEL-28 cells [2]", "result": "high"}]}]}
